Reference: PubChem BioAssay AID1508623 (National Center for Advancing Translational Sciences (NCATS), 2021)
Among all 48,000 compounds or so, about 450 (0.94%) were called active. Inconclusive results (about 19%) are left out. The call rests on the fitted dose curve; in most records, active means well fitted inhibition curve with a large enough effect; inconclusive means small, poorly fitted or top-dose-only effect; inactive means no such curve, though single readings can be large or run the other way. This is one part of the list.

Test: Primary qHTS for Identification of Small Molecule Inhibitors of Huntingtin Promoter Activity; further: nearly all actives have a fitted effect of over 50% in size
Conditions: HEK293 HTT promoter firefly luciferase reporter (activity 0% = vehicle and -100% = no light), 24 h; series mostly up to 57.5 µM; activity change, negative = inhibition: at the top concentration
How it was run: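 HEK293 Fluc reporter, 2,500 cells/well, 24 h pre-culture; cpds up to 57.5 uM final, 24 h 37 degrees C; Dual-Glo, 10 min RT; normalized vehicle = 0%, zero RLU = -100%.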

Activity change, negative = inhibition, inactive:
Cc1oc2ncn(C)c(=O)c2c1C(=O)Nc1ccc(F)cc1 -10.5%
CCc1nn(CC(=O)NCCc2ccc(Cl)cc2)c(=O)c2cc3ccccc3n12 7.7%
Cc1cc(N2CCN(c3ccc(F)cc3)CC2)n2nc(-c3ccc(Cl)cc3)nc2n1 -14.3%
CCOc1ccc2nc(N(Cc3cccnc3)C(=O)C3CCCCC3)sc2c1 -29.3%
Cc1ccc(C2CCN(C(=O)Nc3ccc(Cl)c(Cl)c3)C2)cc1 (configuration not stated) 15.2%
Cc1ccc(-c2nnc(Nc3ccccc3)c3ccccc23)cc1S(=O)(=O)N1CCOCC1 -9.05% [at 11.5 µM]
Cc1ccc(CNC(=O)c2ccc3c(c2)N(Cc2ccccc2Cl)C(=O)CS3)cc1 -22.7%
Cc1cccc(N2CCN(C(=O)c3oc(=O)c4ccccc4c3-c3ccccc3)CC2C)c1 (configuration not stated) -12.4%
COc1ccc(Cn2c(CCC(=O)Nc3ccc(C)cc3C)nc3cccnc32)cc1 -22%
O=C1CC2(CCCC2)CC(=O)N1CCNCC1COc2ccccc2O1 (configuration not stated) 4.44%
COc1cccc(CNC(=O)c2cccc(-n3c(C)nc4cccnc43)c2C)c1 -26.4%
Cc1cccc(CSc2nc(=O)c3c(n2C)NC(=O)CC3c2cc(F)cc(F)c2)c1 (configuration not stated) -24.5%
CC(C)OCCCNC(=O)c1ccc(Cn2c(=O)c3cccn3c3cccnc32)cc1 -2.34%
COc1ccc(-c2[nH]ncc2C(=O)NCc2cccc(OC)c2)cc1 -26.6%
COc1cccc(CNCc2cccn2-c2nnc(N3CCN(c4ccccc4)CC3)s2)c1 -25.4%
CCOc1cccc2cc(-c3cn4c(n3)sc3ccccc34)c(=O)oc12 1.68%
O=C(CCn1c(=O)c2sccc2n(CC(=O)Nc2ccccc2)c1=O)NCc1ccccc1Cl -8.73%
Cc1ccsc1CN(C(=O)COc1ccc(Cl)cc1)C1CCS(=O)(=O)C1 (configuration not stated) -17.8%
CCn1c(=O)cc(SCC(=O)NCc2ccc(Cl)cc2)c2ccccc21 -19.8%
CCOC(=O)[C@H](CCc1ccccc1)N[C@@H](C)C(=O)N1CCC[C@H]1C(=O)O 7.83%
CC1CCN(S(=O)(=O)c2ccc3c(ccc(=O)n3CC(=O)NCc3ccccc3Cl)c2)CC1 -3.64%
CCCCCOc1ccc(C2SC(=O)NC2=O)cc1OCC (configuration not stated) 21.1%
CCN(C(=O)CCNC(=O)Cn1cnc2ccccc2c1=O)c1cc(OC)ccc1OC -6.18%
COc1ccc(NC(=O)CSC2=Nc3ccccc3N=C(c3ccc(F)cc3)C2)cc1OC -23.5%
Cc1ccc2c(c1)c1c(c(=O)n(-c3ccccc3C)c(=O)n1CC(=O)c1ccc(Cl)cc1)n2C -12.6%
O=S(=O)(c1ccc(Cl)cc1)c1nnn2c1nc(NC1CCCCC1)c1sccc12 -2.13%
CCC1CN(C(=O)N2CCC(C(=O)NCc3cc(OC)c(OC)c(OC)c3)CC2)c2ccccc2O1 (configuration not stated) -9.99%
